The list shows a part of the results.
Columns and labels:
Assay in all cases: glycan array binding signal (z-score within array); higher = stronger binding
Settings in all cases: glycan notation: IUPAC condensed, linker removed
[1] = target: Neu5Ac(a2-3)GalNAc
Method in brief: (§1)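 Glycan array data were curated from 3228 arrays in the Consortium for Functional Glycomics database and kept only where the protein sequence was available. Glycan names were converted to IUPAC-condensed notation, and columns mapping to the same glycan were averaged. The binding signal is a within-array Z-score, averaged across arrays of the same protein sequence at different concentrations or buffers and across linkers. Negative Z-scores can be read as non-binding.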

[2] = target: Neu5Ac(a2-3)GalNAc(b1-4)GlcNAc
Method in brief: as §1

[3] = target: Neu5Ac(a2-3)[GalNAc(b1-4)]Gal(b1-4)Glc
Method in brief: as §1

[4] = target: Neu5Ac(a2-3)[GalNAc(b1-4)]Gal(b1-4)GlcNAc
Method in brief: as §1

[5] = target: Neu5Ac(a2-3)[GalNAc(b1-4)]Gal(b1-4)GlcNAc(b1-3)GalNAc
Method in brief: as §1

[6] = target: Neu5Ac(a2-3)[Neu5Ac(a2-6)]GalNAc
Method in brief: as §1

[7] = target: Neu5Ac(a2-6)Gal
Method in brief: as §1

[8] = target: Neu5Ac(a2-6)Gal(b1-3)GlcNAc(b1-3)[Gal(b1-4)GlcNAc(b1-6)]Gal(b1-4)Glc
Method in brief: as §1

[9] = target: Neu5Ac(a2-6)Gal(b1-4)Glc
Method in brief: as §1

[10] = target: Neu5Ac(a2-6)Gal(b1-4)GlcNAc
Method in brief: as §1

[11] = target: Neu5Ac(a2-6)Gal(b1-4)GlcNAc(b1-2)Man(a1-3)Man(b1-4)GlcNAc(b1-4)GlcNAc
Method in brief: as §1

[12] = target: Neu5Ac(a2-6)Gal(b1-4)GlcNAc(b1-2)Man(a1-3)[Gal(b1-4)GlcNAc(b1-2)Man(a1-6)]Man(b1-4)GlcNAc(b1-4)GlcNAc
Method in brief: as §1

[13] = target: Neu5Ac(a2-6)Gal(b1-4)GlcNAc(b1-2)Man(a1-3)[GlcNAc(b1-2)Man(a1-6)]Man(b1-4)GlcNAc(b1-4)GlcNAc
Method in brief: as §1

[14] = target: Neu5Ac(a2-6)Gal(b1-4)GlcNAc(b1-2)Man(a1-3)[GlcNAc(b1-2)Man(b1-4)GlcNAc(b1-2)Man(a1-6)]Man(b1-4)GlcNAc(b1-4)GlcNAc
Method in brief: as §1

[15] = target: Neu5Ac(a2-6)Gal(b1-4)GlcNAc(b1-2)Man(a1-3)[Man(a1-6)]Man(b1-4)GlcNAc(b1-4)GlcNAc
Method in brief: as §1

[16] = target: Neu5Ac(a2-6)Gal(b1-4)GlcNAc(b1-2)Man(a1-3)[Neu5Ac(a2-6)Gal(b1-4)GlcNAc(b1-2)Man(a1-6)]Man(b1-4)GlcNAc(b1-4)GlcNAc
Method in brief: as §1

[17] = target: Neu5Ac(a2-6)Gal(b1-4)GlcNAc(b1-2)Man(a1-6)Man(b1-4)GlcNAc(b1-4)GlcNAc
Method in brief: as §1

[18] = target: Neu5Ac(a2-6)Gal(b1-4)GlcNAc(b1-2)Man(a1-6)[Gal(b1-4)GlcNAc(b1-2)Man(a1-3)]Man(b1-4)GlcNAc(b1-4)GlcNAc
Method in brief: as §1

[19] = target: Neu5Ac(a2-6)Gal(b1-4)GlcNAc(b1-2)Man(a1-6)[GlcNAc(b1-2)Man(a1-3)]Man(b1-4)GlcNAc(b1-4)GlcNAc
Method in brief: as §1

[20] = target: Neu5Ac(a2-6)Gal(b1-4)GlcNAc(b1-2)Man(a1-6)[Man(a1-3)]Man(b1-4)GlcNAc(b1-4)GlcNAc
Method in brief: as §1

[21] = target: Neu5Ac(a2-6)Gal(b1-4)GlcNAc(b1-3)Gal(b1-3)GlcNAc
Method in brief: as §1

[22] = target: Neu5Ac(a2-6)Gal(b1-4)GlcNAc(b1-3)Gal(b1-4)GlcNAc
Method in brief: as §1

[23] = target: Neu5Ac(a2-6)Gal(b1-4)GlcNAc(b1-3)Gal(b1-4)GlcNAc(b1-3)Gal(b1-4)GlcNAc
Method in brief: as §1

[24] = target: Neu5Ac(a2-6)Gal(b1-4)GlcNAc(b1-3)Gal(b1-4)[Fuc(a1-3)]GlcNAc(b1-3)Gal(b1-4)[Fuc(a1-3)]GlcNAc
Method in brief: as §1

[25] = target: Neu5Ac(a2-6)Gal(b1-4)GlcNAc(b1-3)GalNAc
Method in brief: as §1

[26] = target: Neu5Ac(a2-6)Gal(b1-4)GlcNAc6S
Method in brief: as §1

[27] = target: Neu5Ac(a2-6)GalNAc
Method in brief: as §1

[28] = target: Neu5Ac(a2-6)GalNAc(b1-4)GlcNAc
Method in brief: as §1

[29] = target: Neu5Ac(a2-6)GlcNAc(b1-4)GlcNAc
Method in brief: as §1

[30] = target: Neu5Ac(a2-6)GlcNAc(b1-4)GlcNAc(b1-4)GlcNAc
Method in brief: as §1

[31] = target: Neu5Ac(a2-8)Neu5Ac
Method in brief: as §1

[32] = target: Neu5Ac(a2-8)Neu5Ac(a2-3)Gal(b1-3)GalNAc(b1-4)[Neu5Ac(a2-8)Neu5Ac(a2-3)]Gal(b1-4)Glc
Method in brief: as §1

[33] = target: Neu5Ac(a2-8)Neu5Ac(a2-3)Gal(b1-4)Glc
Method in brief: as §1

[34] = target: Neu5Ac(a2-8)Neu5Ac(a2-3)[Gal(b1-3)GalNAc(b1-4)]Gal(b1-4)Glc
Method in brief: as §1

[35] = target: Neu5Ac(a2-8)Neu5Ac(a2-3)[GalNAc(b1-4)]Gal(b1-4)Glc
Method in brief: as §1

[36] = target: Neu5Ac(a2-8)Neu5Ac(a2-8)Neu5Ac
Method in brief: as §1

[37] = target: Neu5Ac(a2-8)Neu5Ac(a2-8)Neu5Ac(a2-3)Gal(b1-4)Glc
Method in brief: as §1

[38] = target: Neu5Ac(a2-8)Neu5Ac(a2-8)Neu5Ac(a2-3)[GalNAc(b1-4)]Gal(b1-4)Glc
Method in brief: as §1

[39] = target: Neu5Ac(a2-8)Neu5Ac(a2-8)Neu5Ac(a2-8)Neu5Ac(a2-3)[GalNAc(b1-4)]Gal(b1-4)Glc
Method in brief: as §1

[40] = target: Neu5Ac(b2-6)Gal(b1-4)GlcNAc
Method in brief: as §1

[41] = target: Neu5Ac(b2-6)GalNAc
Method in brief: as §1

[42] = target: Neu5Ac9Ac(a2-3)Gal(b1-3)GlcNAc
Method in brief: as §1

[43] = target: Neu5Ac9Ac(a2-3)Gal(b1-4)GlcNAc
Method in brief: as §1

[44] = target: Neu5Ac9Ac(a2-6)Gal(b1-4)GlcNAc
Method in brief: as §1

[45] = target: Neu5Gc(a2-3)Gal(b1-3)GlcNAc
Method in brief: as §1

[46] = target: Neu5Gc(a2-3)Gal(b1-3)[Fuc(a1-4)]GlcNAc
Method in brief: as §1

[47] = target: Neu5Gc(a2-3)Gal(b1-4)Glc
Method in brief: as §1

[48] = target: Neu5Gc(a2-3)Gal(b1-4)GlcNAc
Method in brief: as §1

[49] = target: Neu5Gc(a2-3)Gal(b1-4)[Fuc(a1-3)]GlcNAc
Method in brief: as §1

[50] = target: Neu5Gc(a2-6)Gal(b1-4)GlcNAc
Method in brief: as §1

[51] = target: Neu5Gc(a2-6)GalNAc
Method in brief: as §1

[52] = target: Neu5Gc(b2-6)Gal(b1-4)GlcNAc
Method in brief: as §1

B1: AFL (Aspergillus fumigatus), Q4WW81 (protein)
chain: STPGAQQVLFRTGIAAVNLTNHLRVYFQDVYGSIRESLYEGSWANGTEKNVIGNAKLGSPVAATSKELKHIRVYTLTEGNTLQEFAYDSGTGWYNGGLGGAKFQVAPYSRIAAVFLAGTDALQLRIYAQKPDNTIQEYMWNGDGWKEGTNLGGALPGTGIGATSFRYTDYNGPSIRIWFQTDDLKLVQRAYDPHKGWYPDLVTIFDRAPPRTAIAATSFGAGNSSIYMRIYFVNSDNTIWQVCWDHGKGYHDKGTITPVIQGSEVAIISWGSFANNGPDLRLYFQNGTYISAVSEWVWNRAHGSQLGRSALPPA
- glycan array binding signal (z-score) [1]: -0.384
- glycan array binding signal (z-score) [2]: -0.383
- glycan array binding signal (z-score) [3]: -0.385
- glycan array binding signal (z-score) [4]: -0.385
- glycan array binding signal (z-score) [5]: -0.385
- glycan array binding signal (z-score) [6]: -0.389
- glycan array binding signal (z-score) [7]: -0.382
- glycan array binding signal (z-score) [8]: -0.383
- glycan array binding signal (z-score) [9]: -0.385
- glycan array binding signal (z-score) [10]: -0.381
- glycan array binding signal (z-score) [11]: -0.391
- glycan array binding signal (z-score) [12]: -0.381
- glycan array binding signal (z-score) [13]: -0.384
- glycan array binding signal (z-score) [14]: -0.391
- glycan array binding signal (z-score) [15]: -0.392
- glycan array binding signal (z-score) [16]: -0.367
- glycan array binding signal (z-score) [17]: -0.377
- glycan array binding signal (z-score) [18]: -0.383
- glycan array binding signal (z-score) [19]: -0.378
- glycan array binding signal (z-score) [20]: -0.387
- glycan array binding signal (z-score) [21]: -0.381
- glycan array binding signal (z-score) [22]: -0.377
- glycan array binding signal (z-score) [23]: -0.378
- glycan array binding signal (z-score) [24]: 0.087
- glycan array binding signal (z-score) [25]: -0.378
- glycan array binding signal (z-score) [26]: -0.376
- glycan array binding signal (z-score) [27]: -0.383
- glycan array binding signal (z-score) [28]: -0.383
- glycan array binding signal (z-score) [29]: -0.386
- glycan array binding signal (z-score) [30]: -0.385
- glycan array binding signal (z-score) [31]: -0.391
- glycan array binding signal (z-score) [32]: -0.363
- glycan array binding signal (z-score) [33]: -0.383
- glycan array binding signal (z-score) [34]: -0.38
- glycan array binding signal (z-score) [35]: -0.389
- glycan array binding signal (z-score) [36]: -0.378
- glycan array binding signal (z-score) [37]: -0.389
- glycan array binding signal (z-score) [38]: -0.39
- glycan array binding signal (z-score) [39]: -0.379
- glycan array binding signal (z-score) [40]: -0.388
- glycan array binding signal (z-score) [41]: -0.384
- glycan array binding signal (z-score) [42]: -0.381
- glycan array binding signal (z-score) [43]: -0.393
- glycan array binding signal (z-score) [44]: -0.389
- glycan array binding signal (z-score) [45]: -0.378
- glycan array binding signal (z-score) [46]: -0.011
- glycan array binding signal (z-score) [47]: -0.377
- glycan array binding signal (z-score) [48]: -0.384
- glycan array binding signal (z-score) [49]: -0.075
- glycan array binding signal (z-score) [50]: -0.385
- glycan array binding signal (z-score) [51]: -0.388
- glycan array binding signal (z-score) [52]: -0.389
